Laboratory results from PMC12136788.
Some of the results follow.

B1: chr1:183252010:183252124:-|3pUTR|ENSG00000157064|unk|total|mutant (ssRNA)
RNA: GGGAGUUCUACAGUCCGACGAUCUCUUUGUUCACUCCCUGCCGAACUUGGAUGAAAUCAGUGUCCAUGGUUCUUUAUGUUUGCCGUCUUGAUGUGCUCCUGUGGUAUUACUUCCCCUCUGACCGGACAUUGCCGCCAGCCUCACAACAGAGGAUUGAGCAUCA
B2: chr6:107883018:107883119:-|CDS|ENSG00000025796|unk|total|mutant (ssRNA)
RNA: GGGAGUUCUACAGUCCGACGAUCAAGGAAGAUGAAGAAGAAGUUUCAGAUAAGGGCAGUGAUUCUGAAGAAGAAGAAACCAACCGAGAUUCCCAAAGUGAGAAAGAUGAUGGCCGUGACAGAGACUCUGACCGAGAGCAAGAUCAACAGAGGAUUGAGCAUCA
B3: ENSG00000198589:be:win_5651|CDS|ENSG00000198589|bound_else_gene|NA|bound_elsewhere_windowed (ssRNA)
RNA: GGGAGUUCUACAGUCCGACGAUCUUAGCCAGACAAUGAAGGAUCAUCUAGUAAGAGUAGCAAAUGAAGCUGAAUUUAUCCUGAGCAGGCAGAGAGCAGAAGAUAUUCACAGACAUGCGGAAUUUGAGUCACUGUGUGCCCAGUCAACAGAGGAUUGAGCAUCA
B4: chr11:2397021:2397122:+|3pUTR|ENSG00000110651|msi1|total|mutant (ssRNA)
RNA: GGGAGUUCUACAGUCCGACGAUCUUGGGGUUUUGUUUUUGUUCUGAACUUUCCUGUUACCUUUUCAGGGCUGACGUCACAUGCCGGUGGCGUGUAUGAGUGGAGACGGGCCUGGGUCUUGGGGACUGGAGGGCAGGGGUCCUUCAACAGAGGAUUGAGCAUCA
B5: ENSG00000107863:be:win_5101|CDS|ENSG00000107863|bound_else_gene|NA|bound_elsewhere_windowed (ssRNA)
RNA: GGGAGUUCUACAGUCCGACGAUCGAUACUCUUUCCAGGAAAAAAUCAGCUAGAUUCAAGUCAGAUAGUGGAAGUCUAGGAGAUGCCAAGAAUGAGAAAGAAGCACCUUCGUUAACUAAAGUGUUUGAUGUUAUGAAAAAAGGACAACAGAGGAUUGAGCAUCA
B6: chr12:68839811:68839877:+|CDS_3pUTR|ENSG00000135679|msi1_unk|total|mutant (ssRNA)
RNA: GGGAGUUCUACAGUCCGACGAUCAUAAGCCCUGCCCAGUAUGCCGACAACCAAUUCAAAUGAUUGUGCUAACUUAUUUCCCCCCGUUGACCUGUCUAUAAGAGAAUUAUAUAUUUCUAACUAUAUAACCCCCGGAAUUCCGACCAACAGAGGAUUGAGCAUCA
B7: ENSG00000175470:stop:overlap|stop_codon|ENSG00000175470|stop_codon|NA|stop_codon (ssRNA)
RNA: GGGAGUUCUACAGUCCGACGAUCACAAUGUCAUUGCCGUGGCUGCCACCAAUAACUUGUACAUAUUCCAGGACAAAAUCAACUAGAGACGCGAACGUGAGGACCAAGUCUUGUCUUGCAUAGUUAAGCCGGACAUUUUUCUGUCAACAGAGGAUUGAGCAUCA
B8: chrX:54470015:54470457:-|CDS|ENSG00000102302|control|control|control (ssRNA)
RNA: GGGAGUUCUACAGUCCGACGAUCUUCGUCAGUGAUGACGGGCCCCCCAGCCACAGCCUCUGCCCUGGGCCCCCUGCCCUGGCUAGUGUGCCUGUUGCCUUGGCCGACCCCCACCGGCCUGGCUCCCAAGAGGUUGACAGUGACCAACAGAGGAUUGAGCAUCA
B9: chr12:66123492:66123593:-|3pUTR|ENSG00000139233|msi1|FALSE|unique (ssRNA)
RNA: GGGAGUUCUACAGUCCGACGAUCAUGCUACCCAAUAUCCAGUUAUAAUCAGGCCUCAACGUUCUGUCAGGUAUUAAUAUGGUUAGAAUUGUUCUUACAACUGGUAAUUAUAGUCAAUAGAGAUAAAACAGAUGAUGUACUGACCAACAGAGGAUUGAGCAUCA
B10: chr4:67617988:67618115:-|3pUTR|ENSG00000033178|unk|total|mutant (ssRNA)
RNA: GGGAGUUCUACAGUCCGACGAUCAAAUGCCGAAUGUUAAAAAUUAUUGCCCGGGCCGUCUUUUUUUUUUCCAGAAACCUAAUCCGGGUAUUAAAUUUUGUGUUUUUUUUGUUUUUUUUUUUUAAACAGAAGCAUGUUAUUUCACAACAGAGGAUUGAGCAUCA
B11: ENSG00000118785:stop:overlap|stop_codon|ENSG00000118785|stop_codon|NA|stop_codon (ssRNA)
RNA: GGGAGUUCUACAGUCCGACGAUCAGUUUCGCAGACCUGACAUCCAGGUAAAUCCUUUAACAGACACACCUGAUGGUUCUGACUAGCGCUCAAGUCUAGGAAACCACAGUUUGCAUAUUCAUUCAUUCAUUCAUCCAUUCAUUCCAACAGAGGAUUGAGCAUCA
B12: chr4:109463114:109463221:+|CDS|ENSG00000138802|unk|total|mutant (ssRNA)
RNA: GGGAGUUCUACAGUCCGACGAUCAGGAGCACAGCAGUUGUACAGCAGGGGUCCUCCUGCCCCUCAUAUUGUGGGAUCCACUCCCGGAUCUUUCCAAGGUGCUGCAUCGUCAGCAUCCCAUUUGCAUACGAGUGCCUCCCAACCCAACAGAGGAUUGAGCAUCA
B13: ENSG00000070961:be:win_4801|3pUTR|ENSG00000070961|bound_else_gene|NA|bound_elsewhere_windowed (ssRNA)
RNA: GGGAGUUCUACAGUCCGACGAUCCUUGUUUGUAAACAUAAAUAAAUAUGCCCUUUUAUUAAAUAAAUUCAUGGCAAUGUUUUUUUAAAAGACAUUUCAGCUUCUUUACUCAGUUCUGCAUAUACAGUGCAUCAGUCUGUUCUCCAACAGAGGAUUGAGCAUCA
B14: ENSG00000198589:be:win_8651|3pUTR|ENSG00000198589|bound_else_gene|NA|bound_elsewhere_windowed (ssRNA)
RNA: GGGAGUUCUACAGUCCGACGAUCUUGCUCAAAGAAGCAAAAUAUUUUUUAAAGUUAUUAAUAAUUGCUAUUUUUGUAGUCUUUGCUUGACUUUUUUGGGGGGGAUUAGCAAAGCAGAAAACUGGCUGCUGGGUUCUGUAGUUUCAACAGAGGAUUGAGCAUCA

biological target: MSI1 full-length (mouse, UniProt Q61474 1-362); assay: nsRBNS (natural sequence RNA bind-n-seq); RBNS binding buffer (assumed for nsRBNS): 25 mM Tris pH 7.5, 150 mM KCl, 3 mM MgCl2, 0.01% Triton X-100, 500 ug/ml BSA, 20 U/ml SUPERase-In, 4 C; UNK is unkempt and MSI1 is Musashi-1; names of the RNAs are library labels; protein concentration not given here; high values mean tight binding
Chain of UniProt Q61474 (Q61474 whole entry): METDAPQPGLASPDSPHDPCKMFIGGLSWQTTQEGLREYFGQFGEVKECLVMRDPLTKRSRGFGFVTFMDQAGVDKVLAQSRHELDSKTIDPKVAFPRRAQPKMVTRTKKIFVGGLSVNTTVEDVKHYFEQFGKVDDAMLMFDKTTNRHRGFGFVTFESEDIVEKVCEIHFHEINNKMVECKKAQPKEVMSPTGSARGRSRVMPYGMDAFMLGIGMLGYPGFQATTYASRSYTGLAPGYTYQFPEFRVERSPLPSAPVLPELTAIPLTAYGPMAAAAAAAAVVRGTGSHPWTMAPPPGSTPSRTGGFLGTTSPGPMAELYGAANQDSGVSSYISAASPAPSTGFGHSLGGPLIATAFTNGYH

| Binder | binding signal |
| --- | --- |
| B1 | 0.537 enrichment R |
| B2 | 0.564 enrichment R |
| B3 | 1.97 enrichment R |
| B4 | 0.96 enrichment R |
| B5 | 0.753 enrichment R |
| B6 | 0.877 enrichment R |
| B7 | 0.7 enrichment R |
| B8 | 0.564 enrichment R |
| B9 | 17.7 enrichment R |
| B10 | 0.452 enrichment R |
| B11 | 0.42 enrichment R |
| B12 | 0.477 enrichment R |
| B13 | 1.17 enrichment R |
| B14 | 2.09 enrichment R |
